Source: the supplement of paper PMC4604168 (melanoma cell lines)
The list shows a part of the results. Most values come without repeats; read them as rough.

system: A375; experiment: cell count relative to DMSO control; melanoma cells; higher = more viable cells; details: library dose: low library concentration; 72 h
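Also: cell number obtained by counting DAPI-stained nuclei in high-throughput microscope images with image analysis software, screen run in 1,536-well plates.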

Question: How did the cell count turn out when Cc1ccc(Nc2nccc(N(C)c3ccc4c(C)n(C)nc4c3)n2)cc1S(N)(=O)=O [Pazopanib] + CC(C)C[C@H](NC(=O)[C@H](Cc1ccccc1)NC(=O)c1cnccn1)B(O)O [Bortezomib] (first compound 0.4 µM, partner dose 0.001 µM) was run?
Answer: Its cell count is 88.1%.

Question: For O=C(/C=C/c1cccnc1)NCCCCC1CCN(C(=O)c2ccccc2)CC1 + CCCCCCCCc1ccc(CCC(N)(CO)CO)cc1 [fingolimod] (first compound 0.01 µM, partner dose 2 µM), which cell count is on record?
Answer: Its cell count is 66.7%.

Question: CC1(C)CCC(c2ccc(Cl)cc2)=C(CN2CCN(c3ccc(C(=O)NS(=O)(=O)c4ccc(N[C@H](CCN5CCOCC5)CSc5ccccc5)c(S(=O)(=O)C(F)(F)F)c4)cc3)CC2)C1 + CCN(CC)CCNC(=O)c1c(C)[nH]c(/C=C2\C(=O)Nc3ccc(F)cc32)c1C [sunitinib] (first compound 0.4 µM, partner dose 0.4 µM) was tested. Which cell count did it give?
Answer: The cell count was 71.6%.

Question: How did the cell count turn out when CC1(C)CCC(c2ccc(Cl)cc2)=C(CN2CCN(c3ccc(C(=O)NS(=O)(=O)c4ccc(N[C@H](CCN5CCOCC5)CSc5ccccc5)c(S(=O)(=O)C(F)(F)F)c4)cc3)CC2)C1 + C[C@@H](N)c1ccc(C(=O)Nc2ccnc3[nH]ccc23)cc1 [RKI983] (first compound 0.4 µM, partner dose 0.4 µM) was run?
Answer: Its cell count is 55%.

Question: With CC1(C)CCC(c2ccc(Cl)cc2)=C(CN2CCN(c3ccc(C(=O)NS(=O)(=O)c4ccc(N[C@H](CCN5CCOCC5)CSc5ccccc5)c(S(=O)(=O)C(F)(F)F)c4)cc3)CC2)C1 + O=C(O)c1ccc(-c2c[nH]c3ncc(-c4ccccc4)cc23)cc1C1CCCC1 [GSK650394] (first compound 0.4 µM, partner dose 0.16 µM) as the molecule, how does the cell count read?
Answer: The cell count was 80.3%.

Question: O=C(/C=C/c1cccnc1)NCCCCC1CCN(C(=O)c2ccccc2)CC1 + C[C@@H](Oc1cc(-c2cnn(C3CCNCC3)c2)cnc1N)c1c(Cl)ccc(F)c1Cl [Crizotinib] (first compound 0.01 µM, partner dose 0.2 µM) was tested. Which cell count did it give?
Answer: Its cell count is 101%.

Question: O=C(/C=C/c1cccnc1)NCCCCC1CCN(C(=O)c2ccccc2)CC1 + Cn1cnc2c(F)c(Nc3ccc(Br)cc3Cl)c(C(=O)NOCCO)cc21 [selumetinib] (first compound 0.01 µM, partner dose 0.015 µM) was tested. Which cell count did it give?
Answer: The cell count was 87%.

Question: For CC1(C)CCC(c2ccc(Cl)cc2)=C(CN2CCN(c3ccc(C(=O)NS(=O)(=O)c4ccc(N[C@H](CCN5CCOCC5)CSc5ccccc5)c(S(=O)(=O)C(F)(F)F)c4)cc3)CC2)C1 + CN(C)S(=O)(=O)c1ccc2c(c1)/C(=C/c1cc3c([nH]1)CCCC3)C(=O)N2 [SU6656] (first compound 0.4 µM, partner dose 0.4 µM), which cell count is on record?
Answer: Its cell count is 79.5%.

Question: With CC1(C)CCC(c2ccc(Cl)cc2)=C(CN2CCN(c3ccc(C(=O)NS(=O)(=O)c4ccc(N[C@H](CCN5CCOCC5)CSc5ccccc5)c(S(=O)(=O)C(F)(F)F)c4)cc3)CC2)C1 + O=C(CCCCCCC(=O)Nc1ccccc1)NO [vorinostat] (first compound 0.4 µM, partner dose 0.08 µM) as the molecule, how does the cell count read?
Answer: The cell count was 128%.

Question: O=C(/C=C/c1cccnc1)NCCCCC1CCN(C(=O)c2ccccc2)CC1 + CN(C)S(=O)(=O)c1ccc2c(c1)/C(=C/c1cc3c([nH]1)CCCC3)C(=O)N2 [SU6656] (first compound 0.01 µM, partner dose 0.4 µM) was tested. Which cell count did it give?
Answer: Its cell count is 107%.

Question: Which cell count does the source give for CC1(C)CCC(c2ccc(Cl)cc2)=C(CN2CCN(c3ccc(C(=O)NS(=O)(=O)c4ccc(N[C@H](CCN5CCOCC5)CSc5ccccc5)c(S(=O)(=O)C(F)(F)F)c4)cc3)CC2)C1 + COc1ccc(C2=N[C@@H](c3ccc(Cl)cc3)[C@@H](c3ccc(Cl)cc3)N2C(=O)N2CCNC(=O)C2)c(OC(C)C)c1 [Nutlin-3] (first compound 0.4 µM, partner dose 0.1 µM) here?
Answer: Its cell count is 68.7%.

Question: How did the cell count turn out when CC1(C)CCC(c2ccc(Cl)cc2)=C(CN2CCN(c3ccc(C(=O)NS(=O)(=O)c4ccc(N[C@H](CCN5CCOCC5)CSc5ccccc5)c(S(=O)(=O)C(F)(F)F)c4)cc3)CC2)C1 + CCCS(=O)(=O)Nc1ccc(F)c(C(=O)c2c[nH]c3ncc(Cl)cc23)c1F [PLX4720] (first compound 0.4 µM, partner dose 0.08 µM) was run?
Answer: The cell count was 49.6%.

Question: Which cell count does the source give for O=C(/C=C/c1cccnc1)NCCCCC1CCN(C(=O)c2ccccc2)CC1 + Clc1ccc(Nc2nnc(Cc3ccncc3)c3ccccc23)cc1 [vatalanib] (first compound 0.01 µM, partner dose 2 µM) here?
Answer: Its cell count is 83.5%.

Question: With CC1(C)CCC(c2ccc(Cl)cc2)=C(CN2CCN(c3ccc(C(=O)NS(=O)(=O)c4ccc(N[C@H](CCN5CCOCC5)CSc5ccccc5)c(S(=O)(=O)C(F)(F)F)c4)cc3)CC2)C1 + CO[C@H]1C[C@@H]2CC[C@@H](C)[C@@](O)(O2)C(=O)C(=O)N2CCCC[C@H]2C(=O)O[C@H]([C@H](C)C[C@@H]2CC[C@@H](OCCO)[C@H](OC)C2)CC(=O)[C@H](C)/C=C(\C)[C@@H](O)[C@@H](OC)C(=O)[C@H](C)C[C@H](C)/C=C/C=C/C=C/1C [everolimus] (first compound 0.4 µM, partner dose 0.02 µM) as the molecule, how does the cell count read?
Answer: The cell count was 43.6%.

Question: Cc1ccc(Nc2nccc(N(C)c3ccc4c(C)n(C)nc4c3)n2)cc1S(N)(=O)=O [Pazopanib] + C=CCNC1=C2C[C@@H](C)C[C@H](OC)[C@H](O)[C@@H](C)/C=C(\C)[C@H](OC(N)=O)[C@@H](OC)/C=C\C=C(/C)C(=O)NC(=CC1=O)C2=O [Tanespimycin] (first compound 0.4 µM, partner dose 0.002 µM) was tested. Which cell count did it give?
Answer: The cell count was 79.1%.

Question: Which cell count does the source give for CC1(C)CCC(c2ccc(Cl)cc2)=C(CN2CCN(c3ccc(C(=O)NS(=O)(=O)c4ccc(N[C@H](CCN5CCOCC5)CSc5ccccc5)c(S(=O)(=O)C(F)(F)F)c4)cc3)CC2)C1 + Cc1cc(Nc2cc(N3CCN(C)CC3)nc(/C=C/c3ccccc3)n2)n[nH]1 [ENMD2076] (first compound 0.4 µM, partner dose 0.04 µM) here?
Answer: The cell count was 62.7%.

Question: For O=C(/C=C/c1cccnc1)NCCCCC1CCN(C(=O)c2ccccc2)CC1 + COc1cc(Nc2ncc(F)c(Nc3ccc4c(n3)NC(=O)C(C)(C)O4)n2)cc(OC)c1OC [Tamatinib] (first compound 0.01 µM, partner dose 0.4 µM), which cell count is on record?
Answer: The cell count was 71.8%.

Question: With Cc1ccc(Nc2nccc(N(C)c3ccc4c(C)n(C)nc4c3)n2)cc1S(N)(=O)=O [Pazopanib] + OCc1c[nH]c2ccccc12 [Indole-3-carbinol] (first compound 0.4 µM, partner dose 0.8 µM) as the molecule, how does the cell count read?
Answer: The cell count was 97.8%.

Question: Which cell count does the source give for CC1(C)CCC(c2ccc(Cl)cc2)=C(CN2CCN(c3ccc(C(=O)NS(=O)(=O)c4ccc(N[C@H](CCN5CCOCC5)CSc5ccccc5)c(S(=O)(=O)C(F)(F)F)c4)cc3)CC2)C1 + CS(=O)(=O)c1ccc(C(=O)Nc2ccc(Cl)c(-c3ccccn3)c2)c(Cl)c1 [vismodegib] (first compound 0.4 µM, partner dose 1 µM) here?
Answer: The cell count was 52.8%.

Question: Which cell count does the source give for CC1(C)CCC(c2ccc(Cl)cc2)=C(CN2CCN(c3ccc(C(=O)NS(=O)(=O)c4ccc(N[C@H](CCN5CCOCC5)CSc5ccccc5)c(S(=O)(=O)C(F)(F)F)c4)cc3)CC2)C1 + Cn1c(=O)n(-c2ccc(C(C)(C)C#N)cc2)c2c3cc(-c4cnc5ccccc5c4)ccc3ncc21 [NVP-BEZ235] (first compound 0.4 µM, partner dose 0.004 µM) here?
Answer: The cell count was 111%.

Question: CC1(C)CCC(c2ccc(Cl)cc2)=C(CN2CCN(c3ccc(C(=O)NS(=O)(=O)c4ccc(N[C@H](CCN5CCOCC5)CSc5ccccc5)c(S(=O)(=O)C(F)(F)F)c4)cc3)CC2)C1 + C=CCn1c(=O)c2cnc(Nc3ccc(N4CCN(C)CC4)cc3)nc2n1-c1cccc(C(C)(C)O)n1 [MK1775] (first compound 0.4 µM, partner dose 0.02 µM) was tested. Which cell count did it give?
Answer: The cell count was 48.8%.

Question: How did the cell count turn out when O=C(/C=C/c1cccnc1)NCCCCC1CCN(C(=O)c2ccccc2)CC1 + OCc1c[nH]c2ccccc12 [Indole-3-carbinol] (first compound 0.01 µM, partner dose 0.8 µM) was run?
Answer: The cell count was 77.6%.
